Experimental findings from ChEMBL document CHEMBL1156829 are described below.

Over roughly 5,400 compounds, “IFI” has its median near 2; the highest 2% begin near 22. This is one part of the list.

The nature of the assay: NOVARTIS: Inhibition Frequency Index (IFI) - the number of HTS assays where a compound showed > 50% inhibition/induction, expressed as a percentage of the number of assays in which the compound was tested. The class given is functional.
The molecule `C=CCSc1oc(-c2ccco2)nc1[P+](c1ccccc1)(c1ccccc1)c1ccccc1` had an IFI of 23.1%.
For `Cc1ccc(S(=O)(=O)NC(Cc2ccccc2)C(=O)N2CCC(C3CCN(C(=O)c4ccc([N+](=O)[O-])o4)CC3)CC2)cc1` (stereo not drawn) the value was 7.69%; for `CC(C)CCn1nc(C(=O)N2CCOCC2)c2c1CCN(C(=O)c1ccc(N3CCOCC3)cc1)C2`, 2.56%.
`CCc1c(C)nc2cc(-c3cc(OC)cc(OC)c3)nn2c1NCCCn1ccnc1` gave an IFI of 0%.
In the case of `COCCOC(=O)C1=C(C)NC2=C(C(=O)CC(c3ccc(OC)c(OC)c3)C2)C1c1ccccc1F` (stereo not drawn) it was 2.35%.
`CCCn1c(SCCNC(=O)NCC)nc(-c2ccccc2)c1-c1ccccc1` showed an IFI of 0%.
In the case of `CCN(CC)CCCNC(=S)N(Cc1cc2ccc(OC)cc2[nH]c1=O)C1CCCCC1`, the IFI stood at 3.57%.
The molecule `Cc1c(Cl)cccc1NC(=S)N(CCCN(C)c1ccccc1)Cc1cccn1Cc1ccc(Cl)cc1` gave an IFI of 6.45%.
`CC(C)COc1ccc(C(=O)N/C(=C/c2ccccc2)C(N)=O)cc1` came in with an IFI of 0%.
`NCCNc1cc(-c2ccccc2)nc2ccccc12` yielded an IFI of 4.42%.
`CCc1cccc(NC(=S)N2CCCC2c2ccccc2C(F)(F)F)c1` (stereo not drawn) yielded an IFI of 3.7%.
For `Cc1cccc(CCNc2cc(C)nc3nc(C)nn23)c1` the value was 0%; for `c1csc(CN2CCc3nc(N4CCCCC4)sc3C2)c1`, 6.94%; for `CCOc1ccc(NC(=O)CSc2nncc(O)n2)cc1`, 7.69%.
In turn, `CCCOC(=O)C1=C(C)NC2=C(C(=O)CC(c3ccc(OC)c(OC)c3)C2)C1c1ccc(O)c(OCC)c1` (stereo not drawn) had an IFI of 0%.
For `Oc1ccc(CN2CCCCC2)nc1-c1ccccc1` the value was 3.03%; for `Cn1ccnc1C1CCCCN1C(=O)c1cc(COc2ccc(F)cc2Cl)on1` (stereo not drawn), 0%; for `CCC(C)(C)n1nnnc1C(c1cc2ccc(C)cc2[nH]c1=O)N1CCN(c2ccccc2)CC1` (stereo not drawn), 1.8%.
As for `COc1ccc2c(c1)N(C(=O)CSc1nc3ccccc3o1)C(C)(C)c1ssc(=S)c1-2`, the IFI turned out to be 1.15%.
`N=C(N)c1ccc(OCCCOc2ccc(C(=N)N)cc2)cc1` yielded an IFI of 5.56%.
As to `CCn1ncc(CN2CCC(C(=O)Nc3ccccc3-c3cccc(OC)c3)CC2)c1C`, the IFI stood at 0%.
In the case of `Cc1ccc(NC(=O)c2sc3nc4c(c(-c5ccc(C)cc5)c3c2N)CCC4)cc1`, the IFI came to 7.41%.
In turn, `O=c1c2ccccc2[nH]c2ccc(I)cc12` showed an IFI of 0%.
Regarding `Cc1ccc(NC(=O)c2ccc(NCCCN3CCCCCC3)c([N+](=O)[O-])c2)cc1F`, the IFI was 0%.
For the molecule `CCN(CC)c1nc(NN=Cc2cccc([N+](=O)[O-])c2OC)nc(Nc2ccccc2)n1`, the IFI was 5.2%.
`CCOC(=O)C1=C(C)NC2=C(C(=O)CC(c3ccc(OC)c(OC)c3)C2)C1c1c(F)cccc1Cl` (stereo not drawn) returned an IFI of 0%.
In turn, `O=C1CSC(=NN=Cc2cccnc2)N1c1ccccc1` came in with an IFI of 0%.
Take `CC(=O)Nc1nc(C)c(-c2csc(Nc3ccc(C)cc3)n2)s1`: the IFI was 3.33%.
`COc1cccc2c1OCC(CN1CCC(C(=O)Nc3ccc(-n4cccn4)cc3)CC1)=C2` had an IFI of 0%.
For `COc1cccc(CCN2Cc3ccc(C(=O)NC(C)C)cc3N=C2c2cccnc2)c1` the value was 1.22%; for `CCc1nc2nc(C)cc(NCCc3cccc(C)c3)n2n1`, 0%; for `Cc1noc(-c2ccc(O)cc2O)c1-c1ccc2c(c1)OCCO2`, 6.02%.
For `CCN1C(=Cc2sc3ccc(Cl)cc3[n+]2CC)C=Cc2cc(OC)ccc21` the value was 15.4%; for `Cc1cc2nc3ccc(N(C)C)cc3[n+](-c3ccccc3)c2cc1N`, 9.52%; for `OC(CCNC1CCCCC1)COc1cccc2ccccc12` (stereo not drawn), 0%.
`Oc1ccc(-c2ccccc2)cc1CN1CCC(c2ccccc2)CC1` had an IFI of 2%.
Consider `OCCSc1nc(-c2ccccc2)nc2ccc(F)cc12`, for which the IFI is 1.56%.
For the molecule `COC(=O)C1=C(C)NC2=C(C(=O)CC(c3ccc(OC)c(OC)c3)C2)C1c1cccc(O)c1` (stereo not drawn), the IFI was 0%.
In the case of `COc1ccccc1NC(=O)N(Cc1ccccc1)C(C)c1nc2ccccc2c(=O)n1-c1cc(C)ccc1OC` (stereo not drawn) it was 2.5%.
Molecule `CCN1/C(=C/c2sc3ccccc3[n+]2CC)Sc2ccccc21` had an IFI of 21.9%.
The molecule `CC(O)c1ccc(NC(=O)c2cnn3c2NC(c2ccco2)CC3C(F)(F)F)cc1` (stereo not drawn) had an IFI of 0%.
The molecule `CCc1ccc2[nH]c(=O)c(CN(CCCN(CC)CC)C(=S)NCCCN(C)C)cc2c1` came in with an IFI of 2.73%.
Turning to `COc1ccc(CCN(C(=S)Nc2ccccc2)C2CC(=O)N(c3ccc(F)cc3)C2=O)cc1OC` (stereo not drawn), the IFI came to 0%.
In turn, `O=C1CN(C(=O)CCC2CCCC2)C(c2ccc(F)cc2)c2cc(F)ccc2N1` (stereo not drawn) registered an IFI of 2.63%.
For `COc1ccc(C2C(C(=O)c3ccccc3)=C(O)C(=O)N2c2cccc(Cl)c2)c(OC)c1` (stereo not drawn) the value was 0%; for `CCCCOc1ccc(C(O)C(CN2CCCCC2)c2ccccc2)cc1` (stereo not drawn), 0%.
`CCCCCc1ccc(-c2cn3nc(CCCCC)sc3n2)cc1` returned an IFI of 0%.
In the case of `Cc1ccc2ccc3ccc(C)nc3c2n1` it was 17.1%; in that of `COc1ccc(OC)c(-c2ccc(O)c(CNCC3(O)CCCCC3)c2)c1`, 1.71%; in that of `CCOc1ccc(NC(=O)CSc2nc3cc(OCC)ccc3[nH]2)cc1`, 0%.
On to `CCOC(=O)c1cnn(-c2ccnc3cc(Cl)ccc23)c1CNC(C)c1cccs1` (stereo not drawn), for which the IFI amounted to 2.63%.
For `COc1cc(C2CC(=O)NC(C)=C2C(=O)OC(C)C)c(OC)cc1Br` (stereo not drawn), the IFI came to 0%.
With `N#Cc1c2c(c(N3CCN(C(c4ccccc4)c4ccccc4)CC3)n3c1nc1ccccc13)CCC2`, the IFI turned out to be 0%.
Take `COc1ccc(-c2c[n+](Cc3ccccc3Cl)c3n2CCC3)cc1`: the IFI is 2.44%.
`CCOC(=O)c1c(-c2ccccc2)oc2c1C(=O)c1ccccc1C2=O` returned an IFI of 1.47%.
As for `Cc1cc(C)n(CC(O)Cn2c3ccc(Br)cc3c3cc(Br)ccc32)n1` (stereo not drawn), the IFI amounted to 2.04%.
For the molecule `O=C(Nc1ccc(Oc2ccccc2)cc1)NC(CN1CCCC1)c1ccccc1` (stereo not drawn), the IFI was determined as 7.04%.
For `O=C(CSc1ccc2nnc(-c3cccs3)n2n1)Nc1ccccc1`, the IFI is 0%.
In the case of `Cc1nc2c(-c3ccccc3)c(C)nn2c(C)c1CC(=O)NCc1ccccn1` it was 0%.
In the case of `COc1cc(OC)cc(C(=O)Oc2ccccc2-c2nc3cc(C)ccn3c2NC(C)(C)CC(C)(C)C)c1`, the IFI was 2.8%.
`O=C(Nc1ccc(C2=NCCN2)cc1)c1cccc2c(C(=O)Nc3ccc(C4=NCCN4)cc3)cccc12` yielded an IFI of 1.68%.
`CCCCc1ccc(C(=O)N(C)CCCNc2ccnc3cc(Cl)ccc23)cc1`: the IFI was 3.16%.
Molecule `CC[N+]1(CCOc2ccc(C34CC5CC(CC(C5)C3)C4)cc2)CCCCC1` came in with an IFI of 7.69%.
In the case of `CCOC(=O)C1CCN(C(=O)CN2C(=O)c3ccccc3C2c2c[nH]c3ccccc23)CC1` (stereo not drawn) it was 6.67%.
Molecule `COC(=O)C1=C(C)NC2=C(C(=O)CC(c3ccc(OC)c(OC)c3)C2)C1c1cccs1` (stereo not drawn) came in with an IFI of 0%.
As for `CCCCN1C=Nc2cc(C(=O)NCc3ccc(OC)cc3)ccc2C1`, the IFI turned out to be 1.21%.
For `O=C(Cn1c2ccccc2c(=O)c2cc([N+](=O)[O-])ccc21)Nc1cccc(Cl)c1` the value was 1.15%; for `C/C(=C\c1ccccc1)CN(C(=O)c1ccc(C(C)(C)C)cc1)C(C)C`, 2.15%.
For `COc1ccc(CCNC2(Cc3ccccc3)CC(C)N(C)CC2C)cc1OC` (stereo not drawn) the value was 5.46%; for `CCCCN(CCCC)CCCNc1ncnc2c1[nH]c1ccc(C)cc12`, 2.5%; for `Cc1cc(C)nc(/N=C(\N)Nc2ccccc2O)n1`, 3%.
For `COc1ccc(NC(=O)C2c3ccccc3C(=O)N(CC(C)C)C2c2cccs2)cc1OC` (stereo not drawn), the IFI is 3.03%.
In turn, `CCCCc1ccc(C(=O)N(CC(=O)Nc2cc(C(C)(C)C)nn2-c2ccc(Cl)cc2)C(C)C)cc1` came in with an IFI of 1.91%.
For `Cc1ccc([N+](=O)[O-])cc1-c1ccc(/C=C2/SC(=S)N(CC(=O)O)C2=O)o1` the value was 0%.
As to `Cc1cc(N2CCN(C/C=C/c3ccccc3)CC2)n2c(nc3ccccc32)c1C#N`, the IFI is 2.78%.
Turning to `CCCCCN(C(=O)c1cccc(OC)c1)C(CC)c1nc2ccccc2c(=O)n1-c1ccccc1OC` (stereo not drawn), the IFI was 1.96%.
Take `Cc1ccc(/C=C2/SC(=Nc3ccccc3)NC2=O)c(C)c1`: the IFI was found to be 3.41%.
With `COc1cc(OC)cc(N2C(=O)N(Cc3ccc(C(C)(C)C)cc3)c3ccccc3S2(=O)=O)c1`, the IFI is 0%.
The molecule `CC(C)c1cccc(C(C)C)c1NC(=O)N(Cc1ccccc1)C(C)c1nc2ccccc2c(=O)n1-c1ccc(Br)cc1` (stereo not drawn) displayed an IFI of 5.56%.
For `Oc1ccc2cc(-c3nc4ccccc4[nH]3)c3nc4ccccc4n3c2c1`, the IFI was 0%.
`CC(=NNC(=N)N)c1ccc(C)cc1`: the IFI was determined as 0%.
Molecule `Cc1ccc(C(=O)NCCNC(=O)CN2CCOCC2)cc1` returned an IFI of 0%.
On to `COc1ccc(C2CC(=O)C3=C(C2)NC(C)=C(C(=O)OC2CCCC2)C3c2ccc(OC)cc2)cc1` (stereo not drawn), for which the IFI turned out to be 7.41%.
For the molecule `CCN1/C(=C/c2cccc[n+]2C)Sc2ccc(OC)cc21`, the IFI came out at 15.4%.
`Cc1c(Cl)cccc1NC(=O)CCC(=O)NNC(=O)c1ccccc1` registered an IFI of 0%.
The molecule `O=C(CC(=NNc1nc(NN=C(CC(=O)C(F)(F)F)C(F)(F)F)nc(N(c2ccccc2)c2ccccc2)n1)C(F)(F)F)C(F)(F)F` came in with an IFI of 0%.
With `O=C1C(Nc2ccccc2)=C(n2nnc3ccccc32)C(=O)c2ccccc21`, the IFI was determined as 9.09%.
For `O=C(Nc1ccc(-n2cccn2)cc1)C1CCN(C/C=C/c2ccccc2)CC1` the value was 0%; for `Cc1ccn2c(NC(C)(C)CC(C)(C)C)c(-c3ccccc3OC(=O)c3cccc(Cl)c3)nc2c1`, 3.74%.
For the molecule `COc1ccccc1-c1nnc(Nc2nc3cc4c(cc3s2)OCO4)o1`, the IFI was 0%.
For `COc1ccccc1N1C(=N)S/C(=C\c2ccc(OCc3ccccc3F)cc2)C1=O` the value was 2.33%; for `CCCCNC(=O)c1ccc2c(c1)N=C(CC(C)c1ccccc1)N(C1CCCCC1)C2` (stereo not drawn), 2.47%; for `CCCCN(C(=O)Nc1c(C(C)C)cccc1C(C)C)C(CC)c1nc2ccccc2c(=O)n1-c1cccc(Cl)c1` (stereo not drawn), 1.92%.
As to `COc1ccc(CCNC(=O)CN(c2ccc(OC)c(OC)c2)S(=O)(=O)c2ccc(C)cc2)cc1OC`, the IFI was found to be 0%.
In turn, `CCN(CC)CCN(Cc1cc2ccc(C)cc2[nH]c1=O)C(=S)NC(C)c1ccccc1` (stereo not drawn) gave an IFI of 8.41%.
For `CCOC(=O)c1cnc2c(C)cc(C)cc2c1Nc1ccc(OC)c(OC)c1` the value was 0%; for `N=c1ccn(CC(=O)N2CCCc3ccccc32)c2ccccc12`, 0%; for `Clc1ccc(Nc2nc(Nc3ccc(Cl)cc3)c3ccccc3n2)cc1`, 3.73%.
